# Assay results: article PMC9911399, “Two distinct binding modes provide the RNA-binding protein RbFox with extraordinary sequence specificity”
# Changes are numbered by the printed parent chain; changes in the protein carry UniProt numbers. This is one part of the list.
# T1: RBFOX1 RRM (Homo sapiens, UniProt Q9NWB1 109-208)
# T1 sequence: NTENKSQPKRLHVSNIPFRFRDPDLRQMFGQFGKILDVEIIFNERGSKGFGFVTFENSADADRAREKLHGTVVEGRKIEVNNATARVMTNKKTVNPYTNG
# B1: GGACACG (DNA:RNA)
# RNA: GGGAGACCGGAAUUCAGAUUGUCCGGACACGUUAAAUCCCGUCGUAGCCACCA
# DNA 1: CAATCTGAATTCCGGTCTCCC
# DNA 2: TGGTGGCTACGACGGGATT
# B2: GAGCAGC (DNA:RNA)
# RNA: B1 RNA with G26A, A27G, C30G, G31C
# DNA 1: CAATCTGAATTCCGGTCTCCC
# DNA 2: TGGTGGCTACGACGGGATT
# B3: AGCCACA (DNA:RNA)
# RNA: B1 RNA with G25A, A27C, G31A
# DNA 1: CAATCTGAATTCCGGTCTCCC
# DNA 2: TGGTGGCTACGACGGGATT
# B4: AGGUAUG (DNA:RNA)
# RNA: B1 RNA with G25A, A27G, C28U, C30U
# DNA 1: CAATCTGAATTCCGGTCTCCC
# DNA 2: TGGTGGCTACGACGGGATT
# B5: UAAAAGG (DNA:RNA)
# RNA: B1 RNA with G25U, G26A, C28A, C30G
# DNA 1: CAATCTGAATTCCGGTCTCCC
# DNA 2: TGGTGGCTACGACGGGATT
# B6: UAAUUUG (DNA:RNA)
# RNA: B1 RNA with G25U, G26A, C28U, A29U, C30U
# DNA 1: CAATCTGAATTCCGGTCTCCC
# DNA 2: TGGTGGCTACGACGGGATT
# B7: CCAAGCA (DNA:RNA)
# RNA: B1 RNA with G25C, G26C, C28A, A29G, G31A
# DNA 1: CAATCTGAATTCCGGTCTCCC
# DNA 2: TGGTGGCTACGACGGGATT
# B8: AUCCAUC (DNA:RNA)
# RNA: B1 RNA with G25A, G26U, A27C, C30U, G31C
# DNA 1: CAATCTGAATTCCGGTCTCCC
# DNA 2: TGGTGGCTACGACGGGATT
# B9: GUCAAGG (DNA:RNA)
# RNA: B1 RNA with G26U, A27C, C28A, C30G
# DNA 1: CAATCTGAATTCCGGTCTCCC
# DNA 2: TGGTGGCTACGACGGGATT
# B10: UUUGGUG (DNA:RNA)
# RNA: B1 RNA with G25U, G26U, A27U, C28G, A29G, C30U
# DNA 1: CAATCTGAATTCCGGTCTCCC
# DNA 2: TGGTGGCTACGACGGGATT
# B11: GUCAGAC (DNA:RNA)
# RNA: B1 RNA with G26U, A27C, C28A, A29G, C30A, G31C
# DNA 1: CAATCTGAATTCCGGTCTCCC
# DNA 2: TGGTGGCTACGACGGGATT
# B12: CAAUUCC (DNA:RNA)
# RNA: B1 RNA with G25C, G26A, C28U, A29U, G31C
# DNA 1: CAATCTGAATTCCGGTCTCCC
# DNA 2: TGGTGGCTACGACGGGATT
# B13: AAACAUG (DNA:RNA)
# RNA: B1 RNA with G25A, G26A, C30U
# DNA 1: CAATCTGAATTCCGGTCTCCC
# DNA 2: TGGTGGCTACGACGGGATT
# B14: ACUUAAU (DNA:RNA)
# RNA: B1 RNA with G25A, G26C, A27U, C28U, C30A, G31U
# DNA 1: CAATCTGAATTCCGGTCTCCC
# DNA 2: TGGTGGCTACGACGGGATT
# B15: AAGCUCC (DNA:RNA)
# RNA: B1 RNA with G25A, G26A, A27G, A29U, G31C
# DNA 1: CAATCTGAATTCCGGTCTCCC
# DNA 2: TGGTGGCTACGACGGGATT
# B16: AUUAAAA (DNA:RNA)
# RNA: B1 RNA with G25A, G26U, A27U, C28A, C30A, G31A
# DNA 1: CAATCTGAATTCCGGTCTCCC
# DNA 2: TGGTGGCTACGACGGGATT
# B17: CCGGUCU (DNA:RNA)
# RNA: B1 RNA with G25C, G26C, A27G, C28G, A29U, G31U
# DNA 1: CAATCTGAATTCCGGTCTCCC
# DNA 2: TGGTGGCTACGACGGGATT
# B18: ACAUGCC (DNA:RNA)
# RNA: B1 RNA with G25A, G26C, C28U, A29G, G31C
# DNA 1: CAATCTGAATTCCGGTCTCCC
# DNA 2: TGGTGGCTACGACGGGATT
# B19: CGAACCA (DNA:RNA)
# RNA: B1 RNA with G25C, C28A, A29C, G31A
# DNA 1: CAATCTGAATTCCGGTCTCCC
# DNA 2: TGGTGGCTACGACGGGATT
# B20: AACCGCC (DNA:RNA)
# RNA: B1 RNA with G25A, G26A, A27C, A29G, G31C
# DNA 1: CAATCTGAATTCCGGTCTCCC
# DNA 2: TGGTGGCTACGACGGGATT
# Molecular target: T1, RBFOX1 RRM
# Experiment: EMSA; HiTS-Eq, 1 nM pool, 10 min; buffer printed only for the single-RNA assays: 10 mM Tris pH 7.5, 150 mM NaCl, 3.4 mM EDTA, 0.001% NP-40, 30 C
# Details: tags: His6 N-terminal (pET28a); label: 5' 32P
# Method in brief: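 Relative association constants, normalised to the cognate motif, were derived by comparing read counts of each RNA species with those of the control reaction. The RNA sequenced was the free fraction, separated by 8% native PAGE after a 10 min equilibration in 50 µL of 1 nM 5′-radiolabelled RNA (7 randomized nucleotides) with increasing concentrations of purified wild-type or mutant RbFox RRM.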
row,Binder,binding signal
1,B1,0.022 KA relative to UGCAUGU
2,B2,0.00993 KA relative to UGCAUGU
3,B3,0.00408 KA relative to UGCAUGU
4,B4,0.0195 KA relative to UGCAUGU
5,B5,0.00376 KA relative to UGCAUGU
6,B6,0.0234 KA relative to UGCAUGU
7,B7,0.0141 KA relative to UGCAUGU
8,B8,0.000667 KA relative to UGCAUGU
9,B9,0.00703 KA relative to UGCAUGU
10,B10,0.0303 KA relative to UGCAUGU
11,B11,0.0121 KA relative to UGCAUGU
12,B12,0.000827 KA relative to UGCAUGU
13,B13,0.00224 KA relative to UGCAUGU
14,B14,0.000828 KA relative to UGCAUGU
15,B15,0.00323 KA relative to UGCAUGU
16,B16,0.00127 KA relative to UGCAUGU
17,B17,0.00289 KA relative to UGCAUGU
18,B18,0.00396 KA relative to UGCAUGU
19,B19,0.00106 KA relative to UGCAUGU
20,B20,0.00718 KA relative to UGCAUGU
